# Measured values as given in PubChem BioAssay AID1347165 (National Center for Advancing Translational Sciences (NCATS), 2019).
# The campaign covered roughly 220,000 compounds. About 5,700 (2.6%) were called active. Inconclusive results, whose numbers are uncertain, are shown with a selection of clear calls. Calls come from the whole dose curve; as a rule, active = well fitted inhibition curve with a large enough effect; inconclusive = small, poorly fitted or top-dose-only effect; inactive = no such curve, though single readings can be large or run the other way. Potencies of inconclusive entries are doubtful fits and often do not repeat.
# Biological target: Lysine-specific demethylase 5B (Homo sapiens) (UniProt Q9UGL1)
# Experiment: Primary screen for KDM5B Histone Demethylases FDH-coupled qHTS; note: nearly all actives have a fitted effect of over 70% in size
# Settings: FDH-coupled NADH fluorescence (FDH is formaldehyde dehydrogenase); series mostly up to 57.7 µM
# Outline: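 Measured: NADH fluorescence change, 30 min, RT. System: KDM5BΔAP 200 nM final, H3K4me3 peptide, α-KG, Fe(II), ascorbate, NAD⁺ plus FDH, pH 7.5 HEPES. Compounds: titrated, 10 min pre-incubation with enzyme.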
# Potency is the fitted concentration of half-maximal effect; tags give direction and shape of the fitted curve.
# Sequence of UniProt Q9UGL1 (Q9UGL1 whole entry, looked up): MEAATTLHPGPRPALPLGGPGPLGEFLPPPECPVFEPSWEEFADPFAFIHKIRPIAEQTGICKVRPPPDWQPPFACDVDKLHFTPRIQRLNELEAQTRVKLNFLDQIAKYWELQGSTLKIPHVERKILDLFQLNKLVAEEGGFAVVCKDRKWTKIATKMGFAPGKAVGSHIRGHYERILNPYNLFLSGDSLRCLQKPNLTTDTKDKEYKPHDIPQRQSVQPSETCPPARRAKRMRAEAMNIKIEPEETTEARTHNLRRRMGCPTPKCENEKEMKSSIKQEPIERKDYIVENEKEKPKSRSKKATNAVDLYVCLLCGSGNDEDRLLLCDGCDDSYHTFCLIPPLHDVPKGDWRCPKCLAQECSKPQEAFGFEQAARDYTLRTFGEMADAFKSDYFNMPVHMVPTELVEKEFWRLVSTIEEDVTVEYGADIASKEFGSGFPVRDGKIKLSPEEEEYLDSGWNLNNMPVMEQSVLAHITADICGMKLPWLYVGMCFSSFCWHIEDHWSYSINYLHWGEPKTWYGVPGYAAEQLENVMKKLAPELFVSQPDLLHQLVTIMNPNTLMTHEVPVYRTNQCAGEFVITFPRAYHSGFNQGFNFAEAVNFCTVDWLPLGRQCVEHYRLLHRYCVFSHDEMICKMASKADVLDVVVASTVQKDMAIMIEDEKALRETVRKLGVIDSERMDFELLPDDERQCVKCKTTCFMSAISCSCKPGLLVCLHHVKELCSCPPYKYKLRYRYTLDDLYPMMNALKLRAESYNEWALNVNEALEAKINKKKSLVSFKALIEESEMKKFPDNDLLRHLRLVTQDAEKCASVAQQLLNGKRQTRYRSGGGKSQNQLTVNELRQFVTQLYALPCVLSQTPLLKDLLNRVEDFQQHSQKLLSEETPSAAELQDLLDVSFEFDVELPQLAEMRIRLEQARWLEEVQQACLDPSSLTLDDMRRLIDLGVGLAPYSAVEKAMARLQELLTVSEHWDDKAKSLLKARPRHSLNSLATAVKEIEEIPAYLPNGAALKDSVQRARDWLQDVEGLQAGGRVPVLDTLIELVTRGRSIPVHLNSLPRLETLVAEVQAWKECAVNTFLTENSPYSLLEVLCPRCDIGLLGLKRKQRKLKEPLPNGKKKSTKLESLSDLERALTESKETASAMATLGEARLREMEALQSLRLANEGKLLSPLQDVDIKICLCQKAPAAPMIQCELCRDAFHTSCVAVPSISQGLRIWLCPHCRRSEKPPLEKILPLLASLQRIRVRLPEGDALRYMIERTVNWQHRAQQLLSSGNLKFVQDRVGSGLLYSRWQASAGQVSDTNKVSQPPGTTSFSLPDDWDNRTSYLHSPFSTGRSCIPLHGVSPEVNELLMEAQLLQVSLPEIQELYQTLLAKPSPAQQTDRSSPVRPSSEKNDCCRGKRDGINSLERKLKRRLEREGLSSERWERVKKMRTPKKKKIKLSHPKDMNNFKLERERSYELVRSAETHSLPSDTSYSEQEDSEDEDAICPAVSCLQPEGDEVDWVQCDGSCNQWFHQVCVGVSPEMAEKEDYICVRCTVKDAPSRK
row,Structure (SMILES),Potency
1,COc1ccc(C(=O)Nc2nc3c(s2)Cc2c(Br)ccc(OC)c2-3)cc1OC,"inconclusive: 1.41 µM [inhibitor, partial curve, poor fit]"
2,Cc1cc(C)cc(N(CC(=O)Nc2c(C)cc(C)cc2C)S(=O)(=O)c2c(C)nn(C)c2C)c1,"inconclusive: 10 µM [inhibitor, partial curve, poor fit]"
3,CCc1[nH]nc2c1C1(C(=O)Nc3ccc(Cl)cc31)C(C#N)=C(N)O2 (configuration not stated),inactive
4,CCOC(=O)C1CCN(C(=O)c2cnn(-c3ccc(F)cc3)c2-n2cccc2)CC1,inactive
5,CCOC(=O)c1[nH]c2c(c1Cc1ccccc1)C(=O)CC(c1ccc(C(C)(C)C)cc1)C2 (configuration not stated),inactive
6,O=C(C1=Cc2sc3c(c2CS1)CCCC3)N1CCCCC1,"inconclusive: 39.8 µM [inhibitor, single point]"
7,O=C1NC(C(=O)Nc2ccc(F)cc2)Cn2cccc21 (configuration not stated),"inconclusive: 28.2 µM [inhibitor, partial curve, poor fit]"
8,C=CCNC(=O)CSCc1coc(-c2ccc(Cl)cc2)n1,inactive
9,COc1cccc(NC2=C(C#N)C(=O)NC(c3cccc(OC)c3O)S2)c1 (configuration not stated),"inconclusive: 39.8 µM [inhibitor, partial curve, poor fit]"
10,O=C(NCc1cccnc1-n1cccn1)c1ccc(-c2ccc(F)cc2)o1,"inconclusive: 22.4 µM [inhibitor, single point]"
11,CCCn1cc(C2CCN(S(=O)(=O)c3c(C)cc(C)cc3C)CC2)c2ccccc21,"inconclusive: 25.1 µM [inhibitor, single point]"
12,CCCCOc1ccc(C(=O)Nc2cc(-c3cn4cccnc4n3)ccc2OC)cc1,"inconclusive: 2.24 µM [inhibitor, full curve, poor fit]"
13,CC(C)CNc1oc(-c2ccccc2F)nc1C#N,"inconclusive: 1.78 µM [inhibitor, partial curve, poor fit]"
14,C[S+](=O)([O-])N1CC2(CCCCN2Cc2ccccn2)Cc2ccccc21 (configuration not stated),"inconclusive: 56.2 µM [inhibitor, partial curve, poor fit]"
15,CN(CC(=O)NC1(C#N)CCCC1)Cc1ccc(C(F)(F)F)cc1,inactive
16,COC[C@@H]1CN(Cc2ccccn2)C[C@H]1C(=O)NC1CC1,inactive
17,COc1cccc(-c2ocnc2C(=O)NCc2cc(OC)ccc2OC)c1,"inconclusive: 39.8 µM [inhibitor, single point]"
18,CCOc1ccccc1C1C(C#N)=C(SCC(=O)Nc2ccc(C)cc2)NC2=C1C(=O)CCC2 (configuration not stated),"inconclusive: 25.1 µM [inhibitor, single point]"
19,CCN(CC)CCCNC(=O)c1ccc2c(c1)sc1nc(-c3ccc(C)cc3)cn12,"inconclusive: 35.5 µM [inhibitor, partial curve, poor fit]"
20,CN1CCOc2c(C(=O)NCC[S+](C)(=O)[O-])cc(-c3ccccc3)cc21,active: 31.6 µM
21,COc1ccc(-c2nc3ccccc3o2)cc1NC(=O)c1cccnc1,"inconclusive: 39.8 µM [inhibitor, single point]"
22,CCCn1c2ccccc2c2cnn(CC(=O)NCCN(CC)CC)c(=O)c21,"inconclusive: 28.2 µM [inhibitor, partial curve, poor fit]"
23,CN1CCN(C2(CNC(=O)COc3ccc4ccc(=O)oc4c3)CCCCC2)CC1,inactive

row,Structure (SMILES),Potency
1,CCCNC(N)=S,inactive
2,COc1ccc(CCNS(=O)(=O)c2c(C)nc3sc(C)cn3c2=O)cc1OC,"inconclusive: 44.7 µM [inhibitor, single point]"
3,CN(C(=O)CSc1nc2ccsc2c(=O)n1CCc1cccs1)c1ccccc1,inactive
4,O=C(NCC1(COc2cnccn2)C[C@@H](O)[C@@H](O)C1)C1CCCC1 (some centres not stated),"inconclusive: 28.2 µM [inhibitor, partial curve, poor fit]"
5,COc1ccc(Br)cc1CN(C)CC(=O)NCc1ccc(F)cc1,"inconclusive: 20 µM [inhibitor, partial curve, poor fit]"
6,CSC(NS(=O)(=O)c1cccs1)=C(c1nc2ccccc2s1)c1nc2ccccc2s1,inactive
7,CCOc1cc2c(cn1)NCCN(Cc1ccc3[nH]ccc3c1)C2,active: 28.2 µM
8,CC(C)NC(=O)c1cc(-c2cccc(C(F)(F)F)c2)c2nncn2n1,"inconclusive: 100 µM [inhibitor, partial curve, poor fit]"
9,c1ccc(C2(c3ccccc3)CCCN(Cc3ncccn3)C2)cc1,"inconclusive: 11.2 µM [inhibitor, partial curve]"
10,Oc1ccc2ccccc2c1C=Nc1cc(Cl)cc(Cl)c1,"inconclusive: 31.6 µM [inhibitor, partial curve, poor fit]"
11,CCc1nc2nccc(-c3cc(OC)c(OC)c(OC)c3)n2n1,"inconclusive: 25.1 µM [inhibitor, partial curve, poor fit]"
12,Clc1ccccc1Cn1c(-c2cccs2)nc2ccccc21,"inconclusive: 2.82 µM [inhibitor, full curve, poor fit]"
13,Cc1c(-c2ccccc2)oc2c(C(=O)N3CCN(C(=O)c4ccccc4)CC3)cccc2c1=O,inactive
14,CCN(c1cccc(C)c1)S(=O)(=O)c1cc2c(cc1C)n(C)c(=O)c(=O)n2C,"inconclusive: 25.1 µM [inhibitor, partial curve, poor fit]"
15,C[S+](=O)([O-])c1ccc(-c2nc(C(=O)NCCc3ccc(Cl)cc3)n3ccccc23)cc1,active: 89.1 µM
16,COc1ccc(S(=O)(=O)/N=C2\C=C(NS(=O)(=O)c3ccccc3)C(=O)c3ccccc32)cc1,"inconclusive: 1.78 µM [inhibitor, full curve, poor fit]"
17,Cc1ccc2c(C(=O)NCc3ccc(F)cc3Cl)cc(NC(=O)C(C)C)cc2n1,"inconclusive: 17.8 µM [inhibitor, partial curve]"
18,Cc1ccc(-c2csc3nc(-c4ccncc4)[nH]c(=O)c23)cc1,"inconclusive: 25.1 µM [inhibitor, partial curve, poor fit]"
19,COC1CCN(C(=O)c2cccc(S(=O)(=O)N3CCC(C#N)CC3)c2)C1 (configuration not stated),inactive
20,Cn1cccc1-c1nc2ccccc2[nH]1,"inconclusive: 35.5 µM [inhibitor, partial curve, poor fit]"
21,Cc1cc(CNC(=O)c2cc(-c3ccnn3C)cc3c2OCCN3C)no1,"inconclusive: 31.6 µM [inhibitor, partial curve, poor fit]"
22,CCOc1cccc2sc(NC(=O)c3ccc(S(=O)(=O)N4CCCCC4C)cc3)nc12 (configuration not stated),"inconclusive: 39.8 µM [inhibitor, single point]"
23,CCOc1ccc(C(=O)Nc2ccc3nc(N(CC)CC)cc(C)c3c2)cc1,"inconclusive: 28.2 µM [inhibitor, partial curve, poor fit]"

row,Structure (SMILES),Potency
1,CN(C)S(=O)(=O)N1CC[C@@H]2C(=O)NCCCCCCN(Cc3ccncc3)[C@@H]2C1,"inconclusive: 22.4 µM [inhibitor, single point]"
2,CCOc1ccc(C(=O)Nc2ccc3c(c2)CCC(=O)N3CC(C)C)cc1,"inconclusive: 35.5 µM [inhibitor, partial curve, poor fit]"
3,Cn1c(SCc2nc3ccccc3o2)nnc1-c1ccccc1,inactive
4,CC(=O)NC1(C)CCN(Cc2ccc(-c3cccc4ncccc34)cc2)C1 (configuration not stated),active: 39.8 µM
5,CCOc1ccc(CC(=O)Nc2ccc(-c3nnc4n3CCCC4)cc2)cc1,inactive
6,OCC1CCN(Cc2cc3cc4c(cc3nc2-c2ccc(Cl)cc2)OCO4)CC1,"inconclusive: 25.1 µM [inhibitor, single point]"
7,N#Cc1nc(/C=C/c2cccs2)oc1NC1CCCCC1,"inconclusive: 28.2 µM [inhibitor, partial curve, poor fit]"
8,O=C(CSc1nc(C(F)(F)F)nc2ccccc12)NC1CCCC1,inactive
9,CN(C)S(=O)(=O)N1CCC(Oc2ccc(C(=O)NCCc3ccncc3)cc2)CC1,inactive
10,Cc1ccc(NC(=O)Cn2c(=O)n(Cc3ccc4c(c3)OCO4)c(=O)c3oc4ccccc4c32)cc1C,"inconclusive: 1 µM [inhibitor, partial curve, poor fit]"
11,Cn1cccc1C(=O)NC1CCN(c2cc(-c3ccccc3)[nH]n2)CC1,"inconclusive: 22.4 µM [inhibitor, single point]"
12,O=C(c1cc(=O)c2ccccc2o1)N(Cc1ccc(Cl)cc1)Cc1ccco1,inactive
13,Cc1c(C(=O)c2ccc[nH]2)oc2ccc(F)cc12,inactive
14,N#Cc1ccc(C(=O)Oc2ccc(Br)cc2)cc1,inactive
15,COCCN1CCC(N2CCN(S(=O)(=O)c3cccc(Cl)c3)CC2)C1=O (configuration not stated),inactive
16,Cc1cccc(NC(=O)c2cn(-c3ccccc3)nc2-c2ccccc2)c1C,"inconclusive: 39.8 µM [inhibitor, single point]"
17,COc1ccc(-c2nc(C3CC3)nc3c2CCN(C(=O)c2ccccc2OC)CC3)cc1,"inconclusive: 28.2 µM [inhibitor, full curve, poor fit]"
18,O=C(O)C(c1c[nH]c2cc(Cl)ccc12)N1CCN(Cc2cccc3ccccc23)CC1 (configuration not stated),"inconclusive: 25.1 µM [inhibitor, single point]"
19,CC(C)CCN1CC2(CCCN(C(=O)c3cc(C(F)(F)F)[nH]n3)C2)CCC1=O (configuration not stated),inactive
20,CCc1cccc(C)c1NC(=O)CSc1nc2ccncc2[nH]1,inactive
21,COc1ccc(NC(=O)C2CCN(c3cc(C)nc4c(-c5ccc(Cl)cc5)c(C)nn34)CC2)cc1,"inconclusive: 15.8 µM [inhibitor, partial curve, poor fit]"
